Experimental data as given in PubChem BioAssay (Tox21).
Several values for one entry are separate records, joined by “and”; a condition that tells them apart may be missing. Identical values can stand only once. Inconclusive means that the source gave no clear call. Such entries were picked first, then a sample of the others. For part of these data: A potency beside an inconclusive call is a rough fit, not a confirmed value. The source holds several records for some structures; these can differ, active in one and inactive in another. Activity calls are given as the source filed them. Unless noted, calls come from the whole dose curve; as a rule, active = well fitted curve in the direction sought with a large enough effect in the repeat runs; inconclusive = weak or mixed curves; inactive = no such curve, though single readings can be large; an effect the other way counts as inactive or inconclusive.

Key:
[1] = molecular target: Peroxisome proliferator-activated receptor gamma (Homo sapiens) (UniProt P37231); test: qHTS assay to identify small molecule agonists of the peroxisome proliferator-activated receptor gamma (PPARg) signaling pathway (AID 743094; active = well fitted activation curve with a large enough effect in the signal ratio in the repeat runs, not every such curve was filed as active; inconclusive = weak or mixed curves, or effect the other way; inactive = no such curve, though single readings can be large or run the other way; the % refers to the signal ratio; note: potency is the fitted concentration of half-maximal effect; for activation: % is set by controls: 0 for no effect and ±100 for the full control effect); settings: HEK293H PPARg-UAS-bla, beta-lactamase FRET ratio, 17 h; activation: at 57 µM (top of the series) unless noted
Chain of UniProt P37231 (P37231 whole entry, looked up): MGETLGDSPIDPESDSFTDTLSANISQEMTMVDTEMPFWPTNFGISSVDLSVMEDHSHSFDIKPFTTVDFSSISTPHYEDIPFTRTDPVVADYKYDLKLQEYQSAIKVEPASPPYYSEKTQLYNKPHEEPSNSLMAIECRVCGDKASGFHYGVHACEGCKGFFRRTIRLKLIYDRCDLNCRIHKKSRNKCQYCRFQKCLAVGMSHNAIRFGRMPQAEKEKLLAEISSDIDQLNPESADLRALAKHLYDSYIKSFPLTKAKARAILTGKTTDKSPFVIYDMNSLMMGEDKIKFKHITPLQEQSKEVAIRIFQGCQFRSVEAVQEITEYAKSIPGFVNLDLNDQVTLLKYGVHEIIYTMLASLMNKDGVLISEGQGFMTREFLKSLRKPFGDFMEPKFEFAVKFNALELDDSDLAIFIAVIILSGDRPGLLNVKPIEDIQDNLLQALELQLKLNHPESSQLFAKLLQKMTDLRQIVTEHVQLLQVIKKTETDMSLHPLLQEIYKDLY
In short: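 Quantitative HTS agonist mode: stable HEK293H line with UAS-beta-lactamase reporter under PPARg control, 17 h compound exposure at 37C, fluorescence after 1 h FRET substrate loading at room temperature.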

[2] = qHTS assay for small molecule activators of the heat shock response signaling pathway - cell viability counter screen (AID 743209); settings: HSE-bla HeLa viability, CellTiter-Glo luminescence, 5 h; activity change, negative = cytotoxicity: at 62.6 µM (top of the series) unless noted; note: nearly all actives have a fitted effect of over 50% in size; note: potency is the fitted concentration of half-maximal effect; for activity change, negative = cytotoxicity: % is set by controls: 0 for no effect and ±100 for the full control effect
In short: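 First, HSE-bla HeLa cells were seeded at 1500 cells/well and kept overnight at 37 C. Next, compounds were pinned in and incubated 5 h. After the FRET substrate step, CellTiter-Glo was added and luminescence read 30 min later.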

[3] = molecular target: Peroxisome proliferator-activated receptor delta (Homo sapiens) (UniProt Q03181); test: qHTS assay to identify small molecule agonists of the peroxisome proliferator-activated receptor delta (PPARd) signaling pathway (AID 743212; calls by dose curve; note: potency is the fitted concentration of half-maximal effect); settings: HEK293H PPARd-UAS-bla, beta-lactamase FRET ratio, 17 h; activation: at 62.6 µM (top of the series) unless noted
Chain of UniProt Q03181 (Q03181 whole entry, looked up): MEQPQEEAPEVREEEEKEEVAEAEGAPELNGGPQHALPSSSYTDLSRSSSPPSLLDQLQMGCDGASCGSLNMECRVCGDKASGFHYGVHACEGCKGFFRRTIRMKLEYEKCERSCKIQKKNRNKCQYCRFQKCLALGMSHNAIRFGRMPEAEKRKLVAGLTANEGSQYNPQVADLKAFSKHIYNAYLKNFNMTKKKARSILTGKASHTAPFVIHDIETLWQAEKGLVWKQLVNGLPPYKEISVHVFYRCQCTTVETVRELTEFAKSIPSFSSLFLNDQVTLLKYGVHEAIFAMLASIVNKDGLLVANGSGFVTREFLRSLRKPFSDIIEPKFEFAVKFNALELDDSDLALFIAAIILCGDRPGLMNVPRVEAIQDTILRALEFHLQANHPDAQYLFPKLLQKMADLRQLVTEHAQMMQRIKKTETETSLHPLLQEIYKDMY
In short: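 HEK293H UAS-bla reporter cells, human PPARd system; compounds delivered in DMSO after 5 h plating, then at 37 C. Beta-lactamase FRET read, 2 h RT substrate step.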

[4] = molecular target: Peroxisome proliferator-activated receptor delta (Homo sapiens) (UniProt Q03181); test: qHTS assay to identify small molecule antagonists of the peroxisome proliferator-activated receptor delta (PPARd) signaling pathway (AID 743215; active = well fitted inhibition curve with a large enough effect in the signal ratio in the repeat runs, not every such curve was filed as active; inconclusive = weak or mixed curves, or effect the other way; inactive = no such curve, though single readings can be large or run the other way; the % refers to the signal ratio;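 note: cells stimulated with agonist L165041 at 300 nM final during compound exposure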; note: potency is the fitted concentration of half-maximal effect); settings: HEK293H PPARd-UAS-bla, beta-lactamase FRET ratio, antagonist, 17 h; ratio activity, negative = inhibition: at 62 µM (top of the series) unless noted
In short: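 Inhibition of L165041-driven (300 nM final) PPARd signaling is scored in HEK293H UAS-bla cells. Exposure lasts 17 h at 37 C; beta-lactamase activity is then read by FRET substrate fluorescence after 2 h at room temperature.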

[5] = molecular target: Bile acid receptor (Homo sapiens) (UniProt Q96RI1); test: qHTS assay to identify small molecule antagonists of the farnesoid-X-receptor (FXR) signaling pathway (AID 743217; active = well fitted inhibition curve with a large enough effect in the signal ratio in the repeat runs, not every such curve was filed as active; inconclusive = weak or mixed curves, or effect the other way; inactive = no such curve, though single readings can be large or run the other way; the % refers to the signal ratio; note: potency is the fitted concentration of half-maximal effect); settings: HEK293T FXR-UAS-bla, beta-lactamase ratio, CDCA-stimulated, 16 h; activity change, negative = inhibition: at 62.6 µM (top of the series) unless noted
Chain of UniProt Q96RI1 (Q96RI1 whole entry, looked up): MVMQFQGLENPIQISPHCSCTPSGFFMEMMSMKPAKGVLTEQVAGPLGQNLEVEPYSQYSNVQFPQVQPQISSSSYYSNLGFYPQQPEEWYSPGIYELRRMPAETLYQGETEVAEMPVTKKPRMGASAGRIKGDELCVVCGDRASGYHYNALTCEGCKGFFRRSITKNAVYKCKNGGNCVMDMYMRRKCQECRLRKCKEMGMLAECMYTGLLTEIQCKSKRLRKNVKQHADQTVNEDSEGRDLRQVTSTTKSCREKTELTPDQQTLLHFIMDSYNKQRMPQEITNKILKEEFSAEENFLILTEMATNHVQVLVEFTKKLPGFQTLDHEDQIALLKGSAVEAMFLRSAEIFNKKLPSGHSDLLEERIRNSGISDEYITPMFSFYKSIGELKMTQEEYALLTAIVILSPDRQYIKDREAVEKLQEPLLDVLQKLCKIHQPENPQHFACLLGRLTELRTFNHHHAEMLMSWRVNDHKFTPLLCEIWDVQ
In short: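 Antagonist mode against 50 uM (final) chenodeoxycholic acid stimulation in FXR-bla HEK 293T cells, 16 h at 37 °C. Inhibition detected as reduced beta-lactamase activity via LiveBLAzer B/G FRET fluorescence after 2 h at room temperature.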

[6] = molecular target: Vitamin D3 receptor (Homo sapiens) (UniProt P11473); test: qHTS assay to identify small molecule agonists of the vitamin D receptor (VDR) signaling pathway (AID 743222; calls by dose curve; note: potency is the fitted concentration of half-maximal effect); settings: HEK293T VDR-UAS-bla, beta-lactamase FRET ratio, 16 h
Chain of UniProt P11473 (P11473 whole entry, looked up): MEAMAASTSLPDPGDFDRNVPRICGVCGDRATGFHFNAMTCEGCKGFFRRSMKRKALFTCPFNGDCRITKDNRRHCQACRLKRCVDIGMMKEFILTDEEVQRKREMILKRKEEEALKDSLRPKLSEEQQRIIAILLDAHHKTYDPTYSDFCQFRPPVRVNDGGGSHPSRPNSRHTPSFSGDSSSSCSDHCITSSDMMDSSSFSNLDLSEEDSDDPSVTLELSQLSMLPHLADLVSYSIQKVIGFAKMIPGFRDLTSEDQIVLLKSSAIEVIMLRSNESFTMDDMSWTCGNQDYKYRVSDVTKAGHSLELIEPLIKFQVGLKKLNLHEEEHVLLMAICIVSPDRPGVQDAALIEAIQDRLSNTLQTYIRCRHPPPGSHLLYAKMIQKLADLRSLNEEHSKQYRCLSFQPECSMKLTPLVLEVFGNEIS
In short: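 Quantitative HTS agonist-mode screen: compounds in DMSO were pin-transferred onto VDR-bla cells and incubated 16 h at 37C, 5% CO2. Reporter activity was detected with LiveBLAzer B/G FRET substrate after 2 h at room temperature.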

[7] = molecular target: Vitamin D3 receptor (Homo sapiens) (UniProt P11473); test: qHTS assay to identify small molecule antagonists of the vitamin D receptor (VDR) signaling pathway (AID 743223; active = well fitted inhibition curve with a large enough effect in the signal ratio in the repeat runs, not every such curve was filed as active; inconclusive = weak or mixed curves, or effect the other way; inactive = no such curve, though single readings can be large or run the other way; the % refers to the signal ratio; note: % is set by controls: 0 for no effect and ±100 for the full control effect); settings: VDR-UAS-bla HEK293T, beta-lactamase FRET ratio, 16 h
In short: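 Antagonist mode: compound added to VDR-bla cells alongside agonist 1alpha,25-dihydroxyvitamin D3 (3 nM final), incubation 16 h at 37C. Read-out is LiveBLAzer FRET fluorescence, 2 h at room temperature.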

[8] = qHTS assay for small molecule agonists of the antioxidant response element (ARE) signaling pathway (AID 743202; active = well fitted activation curve with a large enough effect in the signal ratio in the repeat runs, not every such curve was filed as active; inconclusive = weak or mixed curves, or effect the other way; inactive = no such curve, though single readings can be large or run the other way; the % refers to the signal ratio; note: potency is the fitted concentration of half-maximal effect); settings: HepG2 ARE-bla reporter, beta-lactamase FRET, 16 h
In short: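 An ARE-responsive beta-lactamase gene stably integrated in HepG2 cells serves as reporter. After 5 h plating and 16 h compound incubation at 37 C, fluorescence of the B/G FRET substrate was measured.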

[9] = qHTS assay for small molecule activators of the heat shock response signaling pathway (AID 743210; active = well fitted activation curve with a large enough effect in the signal ratio in the repeat runs, with a control signal flat, not every such curve was filed as active; inconclusive = weak or mixed curves; the % refers to the signal ratio; note: potency is the fitted concentration of half-maximal effect); settings: HeLa HSE-bla reporter, beta-lactamase ratio, 5 h; activation: at 62.6 µM (top of the series) unless noted
In short: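 In HSE-bla HeLa cells, 5 h compound incubation (37 C) precedes addition of LiveBLAzer B/G substrate; after 2.5 h at room temperature, fluorescence intensity indicates reporter induction.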

[10] = qHTS assay to identify small molecule agonists of the peroxisome proliferator-activated receptor delta (PPARd) signaling pathway - cell viability counter screen (AID 743211); settings: PPARd-bla HEK293H viability, CellTiter-Glo luminescence, 17 h; activity change, negative = cytotoxicity: at 62.6 µM (top of the series) unless noted; note: nearly all actives have a fitted effect of over 55% in size; note: potency is the fitted concentration of half-maximal effect
In short: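 Viability was measured as CellTiter-Glo luminescence (30 min, room temperature) in the same wells as the beta-lactamase readout. GeneBLAzer PPARd UAS-bla HEK293H cells received compound after 5 h plating and were incubated 17 h at 37 C.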

[11] = qHTS assay to identify small molecule antagonists of the farnesoid-X-receptor (FXR) signaling pathway - cell viability counter screen (AID 743221; active = well fitted cell-killing curve with a large enough effect in the repeat runs, not every such curve was filed as active; inconclusive = weak or mixed curves, or effect the other way; inactive = no such curve, though single readings can be large or run the other way; note: nearly all actives have a fitted effect of over 50% in size; note: potency is the fitted concentration of half-maximal effect); settings: FXR-bla HEK293T viability, CellTiter-Glo luminescence, 16 h
In short: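 Cytotoxicity counter screen run in the FXR-bla reporter wells: HEK 293T cells exposed to compound with 50 uM (final) chenodeoxycholic acid for 16 h, 37 C, then viability measured by CellTiter-Glo luminescence after 30 min, room temperature.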

[12] = qHTS assay to identify small molecule agonists of the farnesoid-X-receptor (FXR) signaling pathway - cell viability counter screen (AID 743218); settings: FXR-bla HEK293T viability, CellTiter-Glo luminescence, 16 h; viability change, negative = cytotoxic: at 62.6 µM (top of the series) unless noted; note: nearly all actives have a fitted effect of over 45% in size; note: potency is the fitted concentration of half-maximal effect
In short: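 Cytotoxicity counter-screen run in parallel, same wells: FXR-UAS-bla HEK 293T cells dosed 16 h at 37 C, viability read by CellTiter-Glo luminescence after 30 min at room temperature.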

[13] = qHTS assay to identify small molecule agonists of the vitamin D receptor (VDR) signaling pathway - cell viability counter screen (AID 743224); settings: VDR-bla HEK293T viability, CellTiter-Glo luminescence, 16 h; activity change, negative = cytotoxicity: at 62.6 µM (top of the series); note: potency is the fitted concentration of half-maximal effect; nearly all actives have a fitted effect of over 50% in size
In short: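 Viability is measured in the same wells as the VDR-bla reporter assay: after 16 h compound treatment and 2 h substrate loading, CellTiter-Glo is added and luminescence read 30 min later.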

[14] = qHTS assay to identify small molecule antagonists of the peroxisome proliferator-activated receptor delta (PPARd) signaling pathway - cell viability counter screen (AID 743213); settings: PPARd-bla HEK293H viability, CellTiter-Glo luminescence, 17 h; viability change, negative = cytotoxic: at 62 µM (top of the series) unless noted; note: nearly all actives have a fitted effect of over 50% in size; note: potency is the fitted concentration of half-maximal effect
In short: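 PPARd-bla HEK293H cells were treated with compounds plus agonist L165041 (300 nM final) for 17 h at 37 C. Viability was then read in the same wells by CellTiter-Glo luminescence after 30 min at room temperature.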

[15] = molecular target: Peroxisome proliferator-activated receptor gamma (Homo sapiens) (UniProt P37231); test: qHTS assay to identify small molecule antagonists of the peroxisome proliferator-activated receptor gamma (PPARg) signaling pathway (AID 743191; calls by dose curve; note: nearly all actives have a fitted effect of over 30% in size; note: potency is the fitted concentration of half-maximal effect); settings: HEK293H PPARg-UAS-bla, beta-lactamase ratio, antagonist, 17 h
In short: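 Beta-lactamase reporter under UAS control in HEK293H PPARg-bla cells; compound treatment 17 h at 37C. Read-out: fluorescence intensity after 1 h room-temperature incubation with LiveBLAzer B/G FRET substrate.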

[16] = qHTS assay for small molecule agonists of the antioxidant response element (ARE) signaling pathway - cell viability counter screen (AID 743203; calls by dose curve; note: nearly all actives have a fitted effect of over 55% in size; note: potency is the fitted concentration of half-maximal effect); settings: ARE-bla HepG2 viability, CellTiter-Glo luminescence, 16 h; viability change, negative = cytotoxic: at 73.3 µM (top of the series)
In short: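 Seeded at 2,000 cells/well, ARE-bla HepG2 cells were incubated 5 hrs before compound addition. After 16 hrs of treatment at 37C with 5% CO2, CellTiter-Glo reagent was added and luminescence read 30 min later.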

[17] = qHTS assay to identify small molecule antagonists of the peroxisome proliferator-activated receptor gamma (PPARg) signaling pathway - cell viability counter screen (AID 743194); settings: PPARg-bla HEK293H viability, CellTiter-Glo luminescence, 17 h, co-treated with 50 nM rosiglitazone; activity change, negative = cytotoxicity: at 62.6 µM (top of the series) unless noted; note: nearly all actives have a fitted effect of over 55% in size; note: potency is the fitted concentration of half-maximal effect
In short: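 Viability was measured as CellTiter-Glo luminescence in GeneBLAzer PPARg UAS-bla HEK293H cells. These cells had been exposed 17 h at 37 C to compounds together with rosiglitazone at 50 nM final, with the beta-lactamase readout taken in the same wells.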

[18] = molecular target: Bile acid receptor (Homo sapiens) (UniProt Q96RI1); test: qHTS assay to identify small molecule agonists of the farnesoid-X-receptor (FXR) signaling pathway (AID 743220; active = well fitted activation curve with a large enough effect in the signal ratio in the repeat runs, not every such curve was filed as active; inconclusive = weak or mixed curves, or effect the other way; the % refers to the signal ratio; note: % is set by controls: 0 for no effect and ±100 for the full control effect); settings: HEK293T FXR-UAS-bla, beta-lactamase FRET ratio, 16 h; activation: at 62.6 µM (top of the series) unless noted
In short: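 Beta-lactamase reporter under UAS control in GeneBLAzer FXR HEK 293T cells (5000/well) measured with LiveBLAzer FRET substrate after 2 h at room temperature. Compound exposure lasted 16 h at 37C.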

[19] = activation: at 63.5 µM (top of the series) unless noted
[20] = activity change, negative = inhibition: at 61 µM (top of the series) unless noted
[21] = activation: at 73.3 µM (top of the series) unless noted
[22] = activity change, negative = cytotoxicity: at 62.6 µM (top of the series) unless noted
[23] = ratio activity, negative = inhibition: at 62.6 µM (top of the series) unless noted
Tags give direction and shape of the fitted curve or compound fluorescence and quenching.

NC(N)=Nc1nc(CSCC/C(N)=N/S(N)(=O)=O)cs1
inactive: Potency [1] | Potency [2] | Potency [3] | Potency [4] | Potency [5] | Potency [6, 19]
inconclusive: activity change, negative = inhibition [7, 20] -26.2%

O=C1NC(=O)c2cccc3cccc1c23
inconclusive: Potency [8, 21] 7.7 µM | activity change, negative = cytotoxicity [11, 22] 30.2%
inactive: Potency [1] | Potency [9] | Potency [10]

NC(=O)c1ccccc1N
inactive: Potency [1] | Potency [12]

CCCCC1=NC2(CCCC2)C(=O)N1Cc1ccc(-c2ccccc2-c2nn[nH]n2)cc1
inconclusive: Potency [1] 21.3 µM [activator, partial curve] | Potency [8, 21] 23.7 µM [rising, partial curve, poor fit] | activity change, negative = inhibition [7, 20] 9.45% | Potency [13] 13.3 µM [rising, partial curve, poor fit]
inactive: Potency [9]

CCC(C)(C)C1CCCCC1OC(C)=O (stereo not drawn)
active: Potency [14] 54.9 µM
inactive: Potency [1]
inconclusive: Potency [8, 21] 61.1 µM [rising, partial curve, poor fit] | Potency [2] 61.6 µM [cytotoxic, single point] | Potency [4] 54.9 µM [single point] | Potency [6, 19] 43.6 µM [rising, partial curve] | activity change, negative = inhibition [7, 20] 28.2%

Cc1ncc[nH]1
inconclusive: ratio activity, negative = inhibition [15, 23] 11.5%

O=C(/C=C/C=C/c1ccc2c(c1)OCO2)N1CCCCC1
active: Potency [5] 54.9 µM
inconclusive: activation [1] -10.2% and -12.2% | viability change, negative = cytotoxic [16] -30.1% [cytotoxic] | activation [3] -8.35% | Potency [4] 6.93 µM [rising, full curve, poor fit] | ratio activity, negative = inhibition [4] -17.5% | Potency [12] 1.74 µM [cytotoxic, full curve, poor fit] | Potency [11, 22] 38.9 µM [falling, partial curve, poor fit]

CCOC(=O)[C@H](CCc1ccccc1)N[C@@H](C)C(=O)N(CC(=O)O)C1Cc2ccccc2C1
inconclusive: Potency [10] 23.7 µM [cytotoxic, partial curve] | Potency [3] 33.5 µM [single point] | Potency [12] 15 µM [cytotoxic, partial curve] | Potency [11, 22] 13.3 µM [falling, partial curve]
inactive: Potency [1]

C=CC(=O)OCCCCCCCCCC
inactive: Potency [1] | Potency [12] | Potency [7, 20]

CC(C(O)c1ccccc1)N(C)CCOC(c1ccccc1)c1ccccc1 (stereo not drawn)
inconclusive: activation [1] -15.1% | Potency [8, 21] 33.5 µM | Potency [16] 33.5 µM [cytotoxic, single point] | Potency [2] 13.3 µM [cytotoxic, partial curve] | Potency [3] 5.96 µM [rising, full curve, poor fit] | activity change, negative = inhibition [5] -23.5% | Potency [11, 22] 18.8 µM [falling, partial curve, poor fit] | Potency [13] 10.6 µM [cytotoxic, partial curve, poor fit]
active: Potency [14] 33.5 µM | Potency [12] 15 µM

CCCCCCOC(C)=O
inactive and 24.5 µM (active): Potency [12]
inactive: ratio activity, negative = inhibition ([15]; at 62.6 µM (top of the series)) -11.3% | Potency [17] | activation ([8]; at 94.8 µM (top of the series)) -0.591% | activity change, negative = cytotoxicity ([11]; at 81.1 µM (top of the series)) 1.38%
inconclusive: ratio activity, negative = inhibition [15, 23] 17.3% [at 81.1 µM] | activation [8, 21] 17.9% | Potency [4] 61.6 µM [activator, single point] | activation [18] -8.61% | activity change, negative = cytotoxicity [11, 22] -42.8% | activity change, negative = inhibition ([7]; at 61 µM (top of the series)) 38.1% [activator] | activity change, negative = inhibition ([7]; at 78.8 µM (top of the series)) -8.44%

N[C@@H](Cc1cc(I)c(Oc2cc(I)c(O)c(I)c2)c(I)c1)C(=O)O
inconclusive: Potency [15, 23] 27.7 µM [inhibitor, partial curve] | ratio activity, negative = inhibition [15, 23] -39.2% | Potency [8, 21] 37.6 µM [rising, partial curve, poor fit] | viability change, negative = cytotoxic [14] 7.21% [cytotoxic] | Potency [12] 1.33 µM [rising, partial curve, poor fit] | activation [6, 19] 4.66%
inactive: activation ([6]; at 63.5 µM (top of the series)) 3.89%

OCCN1CCNCC1
inconclusive: Potency [15, 23] 54.4 µM [single point] | Potency [17] 61.1 µM [cytotoxic, single point] | Potency [16] 60.5 µM [cytotoxic, partial curve] | Potency [9] 61.1 µM [activator] | activity change, negative = inhibition [5] 13.8% [at 81.1 µM] | activity change, negative = inhibition [7, 20] 12% [at 78.8 µM]
